# Results published in PubChem BioAssay AID651820 (National Center for Advancing Translational Sciences (NCATS), 2012).
# Values joined by “and” are separate entries in the source; they are usually repeats but may differ in a detail not shown here. Identical values can stand only once. The whole screen tested about 340,000 compounds, of which about 12,000 (3.5%) were called active. Inconclusive results, whose numbers are uncertain, are shown with a selection of clear calls. The call rests on the fitted dose curve; in most records, active means well fitted inhibition curve with a large enough effect; inconclusive means small, poorly fitted or top-dose-only effect, or another doubt; inactive means no such curve, though single readings can be large or run the other way. Potencies beside an inconclusive call are fits to weak or partial responses and may not hold up.
# Experiment: qHTS Assay for Inhibitors of Hepatitis C Virus (HCV)
# Conditions: Huh7.5.1 HCVcc-Cre (HCVcc is cell-culture hepatitis C virus) infection, luciferase reporter, 44 h; activity change, negative = inhibition: at 41.8 µM (top of the series) unless noted
# In short: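 Seed cells (1,000/well) for 4 h; treat with compound and infect with HCVcc-Cre, moi about 0.5. Incubate 44 h, then detect luciferase activity.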
# On the % scale 0 is the no-effect control and ±100 the full control effect; potency means the concentration at half of the fitted maximal effect; tags describe the fitted curve by direction and shape.
Compound,Potency,"activity change, negative = inhibition"
CC(C)c1ccccc1NC(=S)NC(=O)C1CCCCC1,"inconclusive: 22.4 µM [inhibitor, partial curve, poor fit]",–
CN(C)c1ccc(-c2nnc(-c3ccccc3F)o2)cc1,"inconclusive: 15.8 µM [inhibitor, single point]",–
CCCCCCCC(=O)N1CCN(c2cc3c(cc2F)c(=O)c(C(=O)O)cn3CC)CC1,inactive,–
O=C(Nc1nc(-c2cccs2)c(-c2ccccc2)s1)c1ccco1,"inconclusive: 10 µM [inhibitor, partial curve]",–
CCOC(=O)N1CCN(S(=O)(=O)c2ccc3c(c2)SC(C)C(=O)N3)CC1 (stereo not given),"inconclusive: 11.2 µM [inhibitor, single point]",–
CCN(CC)S(=O)(=O)c1ccc(OC)c(NC(=O)CSCc2c(C)noc2C)c1,–,inconclusive: -84.7% [inhibitor]
CC(=O)N1c2ccc(S(=O)(=O)NCC3CCC(C(=O)Nc4cc(C)ccn4)CC3)cc2CC1C (stereo not given),"inconclusive: 22.4 µM [inhibitor, single point]",–
COc1ccc(C(C)NS(=O)(=O)Cc2ccccc2)cc1 (stereo not given),"inconclusive: 0.501 µM [inhibitor, full curve, poor fit]",–
CN1C(=O)C(=O)/C(=C(/O)c2ccc(Br)cc2)C1c1ccccc1F (stereo not given),inactive,–
COc1cc(OC)nc(Oc2ccccc2C(=O)Oc2ccc(Cl)cc2)n1,"inconclusive: 11.2 µM [inhibitor, single point]",–
O=C(Nc1ccc(OC(F)F)cc1)c1ccccn1,"inconclusive: 31.6 µM [inhibitor, single point]",–
Cc1ccc(C)c(S(=O)(=O)Nc2ccc3scnc3c2)c1,"inconclusive: 11.2 µM [inhibitor, partial curve]",–
CCSc1ncc(/C=N/Nc2ccc([N+](=O)[O-])cc2)n1C,inactive,–
CCOC(=O)N1CCC(Nc2c(NCCCN(CC)c3cccc(C)c3)c(=O)c2=O)CC1,"inconclusive: 1.58 µM [inhibitor, partial curve]",–
O=C(c1ccccc1-c1nc(-c2ccc(F)cc2)no1)N1CCCC1,"inconclusive: 12.6 µM [inhibitor, single point]",–
NC(=O)NC(=O)CSc1nc2cc([N+](=O)[O-])ccc2n1-c1cccc(C(F)(F)F)c1,active: 10 µM,–
Oc1oc(-c2ccco2)nc1C=Nc1cccc(Cl)c1,"inconclusive: 31.6 µM [inhibitor, single point]",–
Cc1noc(C)c1COc1ccc(C(=O)NCc2ccccn2)cc1,inactive,–
COCC(C)n1c(SCC(=O)c2cc(C)n(C)c2C)nc2ccccc2c1=O (stereo not given),"inconclusive: 12.6 µM [inhibitor, partial curve]",–
COc1cc2c(cc1NC(=O)Nc1ccc(C)cc1)oc1ccccc12,"inconclusive: 3.55 µM [inhibitor, partial curve, poor fit]",–
Cc1ccc2c(c1)C1(OCCCO1)C(=O)N2,inactive,–
O=C(NCCc1ccco1)c1ccc(OCc2cn3ccccc3n2)cc1,"inconclusive: 28.2 µM [inhibitor, single point]",–
O=C(Nc1ccc(OCC(F)(F)C(F)F)c(C(F)(F)F)c1)c1ccccc1,active: 10 µM,–

Compound,Potency,"activity change, negative = inhibition"
CCC(C(=O)NCCN1CCN(C)CC1)n1c(C)c2cnn(-c3ccccc3)c(=O)c2c1C (stereo not given),inactive,–
COc1cccc(CN2CCN(Cc3ccc(O)c(OC)c3)CC2CCO)c1 (stereo not given),inactive,–
C/C(=N/NC(=O)Cc1c(C)[nH][nH]c1=O)c1ccc(O)cc1,inactive,–
O=C(c1ccccc1)C1CCN(C(=O)C2CCC(=O)N(Cc3ccccc3F)C2)CC1 (stereo not given),"inconclusive: 12.6 µM [inhibitor, single point]",–
O=C(O)c1ccccc1Nc1ccccc1,active: 5.01 µM,–
COCCCn1c(C(=O)N2CCOCC2)cc2c(=O)n3cccc(C)c3nc21,inactive,–
O=C(N/N=C/c1ccc(O)c(O)c1)c1ccc(CSc2cccc3cccnc23)cc1,active: 15.8 µM,–
O=C(N/N=C/c1cc2c(cc1Br)OCO2)c1c[nH]c2ccccc12,active: 22.4 µM,–
O=C(COC(=O)c1ccc2[nH]c3c(c2c1)CCCC3)NC1CCS(=O)(=O)C1 (stereo not given),"inconclusive: 22.4 µM [inhibitor, single point]",–
Cc1cc(C)nc(N2CCC(CNC(=O)CCc3ccccc3)CC2)n1,inactive,–
CC(C)(C)C1CCC(OCC(O)CN2CCN(c3ccccn3)CC2)CC1 (stereo not given),inactive,–
COc1ccc(NC(=O)c2cccc(NC(=O)c3ccccc3)c2)cc1,"inconclusive: 22.4 µM [inhibitor, single point]",–
CCOC(=O)Cc1csc(NC(=O)c2ccc(Br)cc2)n1,"inconclusive: 22.4 µM [inhibitor, single point]",–
O=C(Nc1cccc(Cl)c1)N1CCN2C(=O)c3ccccc3C12c1ccccc1 (stereo not given),"inconclusive: 31.6 µM [inhibitor, single point]",–
CCOc1ccccc1NC(=O)CCSc1nc2n[nH]c(C)c2c(=N)n1-c1ccccc1Cl,"inconclusive: 1.58 µM [inhibitor, full curve] and inconclusive: 11.2 µM [inhibitor, partial curve]",–
COc1ccc(Cl)cc1NC(=O)c1cc(-c2ccc(C)cc2O)n[nH]1,inactive,–
Cc1ccnc2nc(C(=O)Nc3ccc4c(c3)OCO4)nn12,inactive,–
Cc1c(C)n(Cc2ccccc2)c2ccc(C(=O)NCCCN3CCOCC3)cc12,"inconclusive: 31.6 µM [inhibitor, single point]",–
NC(=O)c1c(NC(=O)C2CCCO2)sc2c1CCC2 (stereo not given),"inconclusive: 1.41 µM [inhibitor, partial curve, poor fit]",–
Cc1onc(-c2ccccc2Cl)c1C(=O)OCC(=O)Nc1cccc(S(=O)(=O)N2CCOCC2)c1,"inconclusive: 22.4 µM [inhibitor, partial curve]",–
C=CCC[C@H](Cc1ccc(F)cc1)C(=O)OC[C@H](Cc1c[nH]c2ccccc12)NC(=O)[C@H](CC=C)CC(=O)N(CCO)Cc1ccccc1,"inconclusive: 3.55 µM [inhibitor, single point]",–
O=C(NCC1CC1)Nc1ccccc1F,inactive,–
